From PubChem BioAssay AID1508623 (National Center for Advancing Translational Sciences (NCATS), 2021)
In all, about 48,000 compounds went through this assay and about 450 (0.94%) were called active. Another 19% or so got no clear call; they are omitted. Calls come from the whole dose curve; as a rule, active = well fitted inhibition curve with a large enough effect; inconclusive = small, poorly fitted or top-dose-only effect; inactive = no such curve, though single readings can be large or run the other way. The list shows a part of the results.

experiment: Primary qHTS for Identification of Small Molecule Inhibitors of Huntingtin Promoter Activity; settings: HEK293 HTT promoter firefly luciferase reporter (activity 0% = vehicle and -100% = no light), 24 h; series mostly up to 57.5 µM; activity change, negative = inhibition: at the top concentration; note: nearly all actives have a fitted effect of over 50% in size
Outline: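 Firefly luciferase signal from promoter-reporter HEK293 cells was scaled between vehicle (0%) and zero RLU (-100%). Compounds were tested at final concentrations of up to 57.5 uM over 24 h at 37 degrees C. PTC124 at 50 uM final served as control inhibitor.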

Activity change, negative = inhibition, inactive:
COc1ccc(C2=Nc3ccc(C)cc3NC(c3ccc(Cl)cc3)=N2)cc1 7.77%, COc1ccc(Cl)cc1NC(=O)CCCn1c(C)c2cnn(-c3ccccc3)c(=O)c2c1C -11.2%, COc1ccc(-c2noc(N3CCC(C(=O)Nc4ccc(C)c(F)c4)CC3)n2)cc1OC -19.3%, COc1cccc(Cn2c(=O)n(-c3ccc(Br)cc3F)c(=O)c3sc4ccccc4c32)c1 -10%, CCOc1cccc2cc(-c3nc4sc5c(c4c(=O)[nH]3)CCC(C)C5)c(=O)oc12 (centres undefined) -7.43%, CCCCNC(=O)CSc1nc2ccccc2nc1Cc1ccc(Cl)cc1 3.9%, Cc1ccc(NC(=O)CC2Nc3cccc4cccc(c34)NC2=O)cc1 (centres undefined) -23%, COc1ccc(NC(=O)CCNS(=O)(=O)c2cccc3nsnc23)cc1OC -10.1%, CCCOc1cccc(C(=O)N(Cc2cc(OC)c(OC)c(OC)c2)C2CCS(=O)(=O)C2)c1 (centres undefined) -14.8%, Cc1ccc(OCCn2nnc3sc4c(c3c2=O)CCC(C(C)(C)C)C4)cc1 (centres undefined) 6.06%, CC(C)c1ccc(NC(=O)c2cccn2-c2nnc(N3CCCCC3)s2)cc1 -29.9%, CCOC(=O)c1cccc(NC(=O)CCCn2c(C)c3cnn(-c4ccccc4)c(=O)c3c2C)c1 -24.2%, Cc1cccc(-n2ncc(C(=O)N3CCC(C)CC3)c2C2CCN(C(=O)OC(C)(C)C)CC2)c1 3.6%, COc1cc(C2CC(=O)Nc3c2c(=O)n(C)c(=O)n3C)cc(OC)c1OC (centres undefined) -9.58%, CCCCn1c(CNC(=O)c2ccc(OC)cc2)nnc1SCC(=O)Nc1ccccc1 -13.5%, Cc1ccc(CNC(=O)CCC(=O)N2CC(C)Sc3ccccc32)cc1 (centres undefined) -13.1%, COc1ccc(-c2cc(C(C)=O)c(C)n2CCC(=O)NCc2ccc(F)cc2)cc1 -15.7%, Cc1ccc(NC(=O)c2cc3c(=O)[nH]c4ccccc4c3n2C)cc1F 0.232%, COc1ccc(CCNC(=O)NCc2noc3ccc(C)cc23)c(OC)c1 -22.3%, CC[C@]12CCCN3CCc4c(n(c5ccccc45)C(=O)C1)[C@@H]32 -15.7%, CCOC(=O)c1c(S(=O)(=O)NCC(=O)N2CCN(c3ccccc3OC)CC2)c(C)n(C)c1C -0.156%, Cc1cc(C)c(/C=C/c2onc(C)c2S(=O)(=O)N2CCC(C(=O)N3CCN(c4ccccc4)CC3)CC2)c(C)c1 -15.5%, COC(=O)c1ccc(Cn2c(SCc3cccc(C)c3)nc3ccncc32)cc1 -3.66%, CCOC(=O)c1sc2ncn(CC(=O)Nc3ccc(C)cc3C)c(=O)c2c1C -10.1%, CCn1cc(C(=O)O)c(=O)c2cc(F)c(N3CCN(C)CC3)cc21, COc1cccc(NC(=O)c2cn(C3CCCCC3)c(=O)c3c2c2ccccc2n3C)c1 -16.2%, CCCCNC(=O)C(CC)Sc1nnc(-c2ccc(OC)c(OC)c2)c(-c2ccc(OC)c(OC)c2)n1 (centres undefined) -12.1%, CC1CCc2nc3ncn(CC(=O)Nc4cccc(C#N)c4)c(=O)c3cc2C1 (centres undefined) -11.6%, COc1ccc(S(=O)(=O)N(CC(=O)N2CCC(C)CC2)c2ccc(C)cc2)cc1 -19.5%, COc1cc(Cl)c(C)cc1NC(=O)CN1c2ccccc2S(=O)(=O)c2ccccc21 -19.1%, CCc1ccccc1Nc1nn2c(=O)c3ccc(C(=O)Nc4cc(C)cc(C)c4)cc3nc2s1 -3.86%, Cc1nn(C)c2c1c(C(F)(F)F)cc(=O)n2CC(=O)NCc1ccccc1Cl 0.276%, CCOc1ccccc1NC(=O)C(C)Sc1nc2c(c(=O)[nH]1)CCCC2 (centres undefined) -2.94%, CCc1cccc(CC)c1NC1=NS(=O)(=O)c2ccccc21 -13.8%, CCOCCCNC(=O)CCc1nnc2ccc(N3CCN(c4cccc(OC)c4)CC3)nn12 1.8%, CCOC(=O)c1ccccc1NC(=O)CCc1c(C)nc2ncnn2c1C -1.94%, Cc1ccc(NCc2nnc3n2CCCCC3)cc1Cl 10.5%, Cc1ccc2c(=O)cc(C(=O)Nc3nnc(C)s3)oc2c1 -0.676% [at 11.5 µM], CCn1nc(-c2ccccc2)c(-c2ccccc2)c(C(=O)OCCOC)c1=O -13%, Cc1oc(-c2ccccc2)nc1CNC(=O)Nc1ccccc1 0%, CCOc1ccc(S(=O)(=O)N2CCN(c3ccccc3)CC2)cc1C(N)=O -0.896%, CC(C)N(C(=O)Cn1cc(S(=O)(=O)Cc2ccc(C(F)(F)F)cc2)c2ccccc21)C(C)C -14.7%, Cc1ccc(Nc2c(-c3ccccc3O)nc3ccc(Br)cn23)cc1 15.2%, COc1ccc2c(Sc3ccc(Cl)cc3)c(C(=O)NCCCN3CCCCC3)[nH]c2c1 -29%, CCOc1ccc(-n2c(=O)c3c(C)c(C(=O)N(C)C)sc3n(CC(=O)Nc3c(C)cc(C)cc3C)c2=O)cc1 -2.96%, Cc1cccc(NC(=O)CSc2nc3c([nH]c4ccccc43)c(=O)n2C)c1 -20.7%, Cc1ccc(CN(C(=O)COc2ccc(C)c(C)c2)C2CCS(=O)(=O)C2)o1 (centres undefined) -15%, COc1ccc(S(=O)(=O)Nc2cc(-c3cn4ccccc4n3)ccc2C)cc1 -29.9%, COc1cccc(C2C(C(=O)Nc3cccnc3)=C(C)Nc3nc(SCc4ccccc4)nn32)c1 (centres undefined) -2.37%, Cc1nc2ccc(S(=O)(=O)CCC(=O)Nc3ccccc3C)cc2s1 -4.13%, O=C(CC1NCCNC1=O)Nc1cccc(F)c1 (centres undefined) -13.9%, Cc1ccc2ncc3c(-c4ccccc4)nn(CC(=O)NC4CCCCC4)c3c2c1 -13%, COc1ccccc1N1CCN(CCCNC(=O)Cn2ncc3c([nH]c4ccccc43)c2=O)CC1 5.5%, COc1ccc(NC(=O)CSC2=Nc3ccccc3C3=NC(CCC(=O)NCc4ccco4)C(=O)N23)cc1 (centres undefined) -16.6%, COc1ccccc1CNC(=O)C(=O)NCC(c1ccc2c(c1)OCO2)N1CCOCC1 (centres undefined) -17.2%, CCc1ccc(CNc2nc3nc(C)c(Cc4ccccc4)c(=O)n3[nH]2)cc1 -17.4%, CCc1ccc(-c2nc(SCC(=O)NCCOC)c(-c3ccc(C)cc3)[nH]2)cc1 -21.4%, CC(=O)c1cccc(NC(=O)C2=CC(c3ccco3)=NS(=O)(=O)N2C)c1 -6.75%, COc1ccc(Nc2nnc(-c3ccc(C)c(S(N)(=O)=O)c3)c3ccccc23)cc1 -24.2%, CCc1cccc(C)c1NC(=O)c1cnn(-c2ccc(F)cc2)c1-n1cccc1 -37.5%, Cc1cccc(S(=O)(=O)c2cn(Cc3ccccc3)c3cc(N4CCCC(C)C4)c(F)cc3c2=O)c1 (centres undefined) -23.6%, Clc1ccc(CSc2nc(NCCc3ccccc3)c3ccccc3n2)cc1 2.53%, Cc1cc(NC(=O)C2CCCN(S(=O)(=O)c3cccc4nonc34)C2)ccc1Br (centres undefined) -6.88%, COc1ccc(OC)c(CNCc2c(C(=O)O)n(Cc3ccccc3)c3cc(OC)ccc23)c1 -11.1%, CCC(=O)N1CCc2cc(S(=O)(=O)NC(CC(C)C)C(=O)Nc3ccc(CC)cc3)ccc21 (centres undefined) -17.5%, O=C(CN1N=C(c2ccc(Cl)cc2)CCC1=O)NCc1ccc(F)cc1 -5.44%, O=C1Nc2ccccc2Oc2cc(Oc3ccc(Cl)cc3)ccc21 -32.2%, Cc1ccc(-c2cc(C(F)(F)F)n3nc(C(=O)Nc4ccc(C#N)cc4)cc3n2)cc1 -14.4% [at 11.5 µM], CCOc1ccccc1CNC(=O)CCCN1C(=O)CCn2nc(-c3cccn3C)cc21 0%, Cc1ccc(CNC(=O)C2CCN(S(=O)(=O)c3ccc4c(c3)oc(=O)n4C)CC2)cc1 -17.1%, CCc1ccc(-n2nc(C)c3c(C)cc(=O)n(CC(=O)Nc4ccc(OC)c(OC)c4)c32)cc1 -16%, COc1ccc(Cl)cc1N(C)C(=O)Cn1cnc2sc(C)c(S(=O)(=O)N3CCN(c4ncccn4)CC3)c2c1=O -13%, CCC(CC)C(=O)Nc1ccccc1C(=O)OCc1cc(=O)n2nc(C3CCCCC3)sc2n1 -28%, CCOc1ccc(CNC(=O)Cn2ncc3c(=O)oc4ccc(C)cc4c32)cc1 5.4%, Cc1ccc(C)c(CN2C(=O)c3ccccc3S(=O)(=O)c3ccc(C(=O)N4CCOCC4)cc32)c1 -21.5%, COc1ccc(C(=O)N2CCCCC2CCN2CCCCC2)cc1 (centres undefined) -8.15%, COc1ccc(Cl)cc1NC(=O)[C@H]1O[C@@H]2OC(C)(C)O[C@@H]2[C@H]2OC(C)(C)O[C@H]21 -4.15%, O=S(=O)(c1cccs1)N1CCN(c2ccc(Cl)cc2)CC1 -52%, CCN1CCN(C(=O)c2ccc3c(c2)N(Cc2cc(C)ccc2C)C(=O)c2ccccc2S3=O)CC1 (centres undefined) -18.8%, COc1ccc(NC(=O)Cn2cc(C(=O)C3CC3)c3ccccc32)cc1 -7.43%, NS(=O)(=O)c1ccc(CCNc2nc3c(-c4cccc(F)c4)nnn3c3ccc(Cl)cc23)cc1 3.49%, CCOc1ccccc1NC(=O)Cn1nnc2sc3c(c2c1=O)CCC(C(C)(C)C)C3 (centres undefined) 5.34%, Cc1ccc(CSc2nc3ccc(NC(=O)COc4ccccc4F)cc3s2)cc1 -14.8%, CCN(CC)CCCNC(=O)Cn1c(-c2cccs2)cc2cc(Cl)ccc21 -26.7%, CCOC(=O)c1c(C)oc2c(Cl)cc(NS(=O)(=O)c3ccc(Cl)c(C)c3)cc12 -19.8%, CCOC(=O)c1c(C)[nH]c(C)c1S(=O)(=O)N(C)CC(=O)N1CCN(c2ccccc2OC)CC1 -23%, CCOC(=O)N1CCN(C(=O)CN(c2ccc(C)cc2C)S(=O)(=O)c2ccccc2)CC1 -10.4%, O=C(CN1C(=O)C2(SCC(=O)N2c2cccc(Cl)c2)c2ccccc21)NC1CCCCC1 (centres undefined) -13.8%, O=C(CNS(=O)(=O)c1ccc(Br)s1)N1CCN(c2ccccc2F)CC1 -16.1%, Cc1nn(CC(=O)N2CCN(c3ccccc3)CC2)c(=O)c2cccn12 2.11%, Cc1ccc(-c2nc3c(cnn3-c3ccccc3)c(=O)n2-c2ccc(Cl)cc2)cc1 -24.7%, O=C(COCc1cc(-c2ccco2)on1)Nc1ccc(OC(F)(F)F)cc1 6.94%, COc1cccc(OC)c1C(=O)Nc1ccc2c(c1)CCCN2S(=O)(=O)c1ccc(C)cc1 -29.8%, Cc1oc(-c2ccc(Cl)cc2)nc1Cn1c(=O)cc(-c2ccccc2)c2c(C)nn(C)c21 -16.6%
